Several values for one entry are separate records, joined by “and”; a condition that tells them apart may be missing. Identical values can stand only once. Screen size: about 410,000 compounds; about 7,200 (1.8%) were called active. This list was built around the results that the source calls inconclusive (neither active nor inactive); the mix of calls is not that of the screen. Calls come from the whole dose curve; as a rule, active = well fitted activation curve with a large enough effect; inconclusive = small, poorly fitted or top-dose-only effect, or another doubt; inactive = no such curve, though single readings can be large or run the other way. Potencies beside an inconclusive call are fits to weak or partial responses and may not hold up.
Assay: qHTS of TDP-43 Inhibitors; note: nearly all actives have a fitted effect of over 50% in size; for growth rescue (activation): % of control where 0% means no effect
Details: TDP-43 expressing yeast growth rescue, BacTiter-Glo, 24 h; growth rescue (activation): at 46.1 µM (top of the series) unless noted
In short: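 Yeast expressing TDP-43 (pregrown in raffinose, seeded at OD600=0.02 in galactose medium) exposed to compounds 24 hr at 30 deg C. Growth read by BacTiter-Glo luminescence; rescue of toxicity appears as increased signal.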
Potency is the fitted concentration of half-maximal effect; tags give direction and shape of the fitted curve.

| Structure (SMILES) | Potency | growth rescue (activation) |
| --- | --- | --- |
| O=[N+]([O-])c1cc(/C=N\O)ccc1Oc1ccc(F)cc1 | inconclusive: 3.16 µM [activator, full curve] | – |
| Cc1c(C=O)c2ccccn2c1C(=O)c1cccs1 | inconclusive: 14.1 µM [activator, single point] | – |
| O=C(/C=C/c1cc2c(cc1Br)OCO2)NCc1ccc(F)cc1 | – | inactive: 12.9% |
| CCCNC(=O)c1c(NC(=O)c2ccc(C)cc2)sc2c1CCCCC2 | inconclusive: 10 µM [activator, partial curve, poor fit] | – |
| O=S(=O)(NCCc1csc(-c2cccnc2)n1)c1cccc(F)c1 | – | inactive: 0% |
| O=C1C2C3c4ccccc4C(c4ccccc43)C2C(=O)N1c1cccnc1 (stereo not drawn) | inconclusive: 5.62 µM [activator, partial curve, poor fit] | – |
| COc1ccc(CN2C(=O)NC3(CCCc4ccccc43)C2=O)cc1F (stereo not drawn) | active: 11.2 µM | – |
| Clc1ccc(-c2nc3ccc(Br)cn3c2Cc2cccc(Cl)c2)cc1 | active: 31.6 µM | – |
| CC1CCCC(NC(=O)COC(=O)/C=C/c2ccc(F)cc2)C1C (stereo not drawn) | inconclusive: 35.5 µM [activator, single point] | – |
| COc1ccc(S(=O)(=O)Cc2ccc(C(=O)N3CCN(c4cc(C)ccc4C)CC3)o2)cc1 | inconclusive: 25.1 µM [activator, single point] and inconclusive: 12.6 µM [activator, single point] | – |
| Cc1ccc(C(=O)NCC(=O)OCc2cc(=O)n3nc(C4CC4)sc3n2)cc1 | – | inactive: 14.2% |
| Cc1ccc(C)c(CC(=O)N2CCCC(c3cc(C(=O)NCc4ccccc4)no3)C2)c1 (stereo not drawn) | inconclusive: 28.2 µM [activator, partial curve, poor fit] | – |
| COc1cccc(-c2nc(CCl)cs2)c1OC | active: 14.1 µM | – |
| CCOC(=O)C1(C)CCN1C(=O)CSc1ccccc1 (stereo not drawn) | inconclusive: 0.316 µM [activator, full curve, poor fit] | – |
| CC1=C(C(=O)Nc2ccc(C)cc2Cl)C2(CCCCC2)OC1=O | active: 11.2 µM | – |
| Cc1ccccc1S(=O)(=O)Cc1ccc(C(=O)NCc2ccccc2Cl)o1 | – | inactive: 0% |
| COc1ccc(CNC(=O)C2CCN(S(=O)(=O)c3c(C)noc3/C=C/c3cccs3)CC2)cc1 | – | inactive: 7.23% |
| CC(C(=O)NCc1cccc(Br)c1)n1ncn2cccc2c1=O (stereo not drawn) | – | inactive: 7.42% |
| CS/C(=C/[N+](=O)[O-])Nc1cccc2c1C(C)CC2(C)C (stereo not drawn) | inconclusive: 12.6 µM [activator, single point] | – |
| CC1Cc2ccccc2N1CC(=O)NC(=O)NC1CCCC1 (stereo not drawn) | inconclusive: 35.5 µM [activator, partial curve] | – |
| Cc1c(C(N)=O)sc2ncn(CCOc3ccccc3)c(=O)c12 | – | inactive: 1.28% |
| COC(=O)Cc1nnc(Nc2cccc(C)c2)c2ccccc12 | – | inactive: 0.203% |
| Cc1ccccc1OCC(=O)Nc1ccc(N2CCN(C(=O)c3ccco3)CC2)cc1 | active: 15.8 µM | – |
| O=C1c2ccccc2C(=O)N1CCCCNc1ccccc1 | inconclusive: 35.5 µM [activator, single point] | – |
| O=C(Cn1cnc2onc(-c3ccc(F)cc3)c2c1=O)N1CCN(c2ccccc2F)CC1 | inconclusive: 35.5 µM [activator, single point] | – |

| Structure (SMILES) | Potency | growth rescue (activation) |
| --- | --- | --- |
| Cc1ccc(-c2ccc(CN3C(CC(C)C)C(=O)N(Cc4cn(CCC5OCCO5)nn4)CCS3(=O)=O)cc2)cc1 (stereo not drawn) | active: 35.5 µM | – |
| CN(C)Cc1c(C(=O)N/N=C/c2cccc(OCc3c(F)cccc3Cl)c2)nnn1-c1nonc1N | – | inactive: 8.32% |
| CCc1ccccc1NC(=O)c1cc2sc(Cl)cc2n1CC | – | inactive: -6.89% |
| CCc1cc(C(=O)N2CCCC(C(=O)c3cccc4ccccc34)C2)n(C)n1 (stereo not drawn) | inconclusive: 35.5 µM [activator, partial curve] | – |
| COc1ccc(C/C(C)=N/NC(=S)Nc2ccc(Cl)cc2)cc1 | inconclusive: 11.2 µM [activator, single point] | – |
| Cn1c(CO)c(-c2ccccc2)c2cc([N+](=O)[O-])ccc21 | active: 14.1 µM | – |
| Nc1cccc(-c2nc3ccccc3s2)c1 | inconclusive: 25.1 µM [activator, single point] | – |
| CCOC(=O)c1ccc(-n2c(CCC(=O)O)ccc2-c2ccc(F)cc2)cc1 | active: 12.6 µM | – |
| COc1ccc(S(=O)(=O)Nc2ccc3c(c2)OCO3)cc1Cl | inconclusive: 12.6 µM [activator, partial curve] | – |
| COC(=O)c1cccc(CSc2nnc(-c3ccco3)n2-c2ccccc2)c1 | inconclusive: 7.08 µM [activator, partial curve, poor fit] | – |
| Cc1ccc(-c2nc3cnccn3c2Nc2ccccc2)o1 | active: 35.5 µM | – |
| O=C(Nc1ccccc1)Nc1cccc2cccnc12 | active: 7.08 µM | – |
| O=C(NCCCCc1ccccc1)c1nn(-c2ccccc2F)nc1CO | inconclusive: 22.4 µM [activator, partial curve] | – |
| Cc1cc(C(=O)COC(=O)Cc2n[nH]c(=O)c3ccccc23)c(C)n1-c1ccc2c(c1)OCO2 | inconclusive: 31.6 µM [activator, partial curve] | – |
| Cc1nn(CCC(=O)NCc2cccc(Br)c2)c(=O)c2nn(-c3ccccc3)c(C)c12 | – | inactive: 15.9% |
| O=C(c1ccc(CS(=O)c2ccccc2Cl)o1)N1CCN(c2cccc(C(F)(F)F)c2)CC1 (stereo not drawn) | active: 17.8 µM | – |
| COc1ccc(-c2nnc(SCC(=O)Nc3ccccc3C)o2)cc1OC | inconclusive: 14.1 µM [activator, partial curve] | – |
| CC(C)(C)Nc1nc(Cl)nc(Nc2ccccc2)n1 | active: 28.2 µM | – |
| Cc1cc(Br)ccc1NC(=O)c1coc(=O)c2ccccc12 | – | inactive: 13% |
| COC(=O)c1ccccc1NC(=O)CCc1ccccc1 | active: 10 µM | – |
| CC(C)c1ccccc1NC(=O)CSc1nnc(COc2ccccc2)o1 | inconclusive: 11.2 µM [activator, partial curve] | – |
| CC(C)(C)OC(=O)N1CSC[C@H]1C(=O)NC[C@H](CC(=O)O)c1ccc(Cl)cc1 | – | inactive: -5.6% |
| Cc1ccc(CNC(=O)CN(C)S(=O)(=O)c2ccc(Br)s2)cc1 | – | inactive: 13.8% |
| Cc1c(Cl)cccc1NC(=S)NCCc1ccc(Cl)cc1 | inconclusive: 7.94 µM [activator, single point] | – |
| CCOc1ccccc1CNC(=O)CCCN1C(=O)COc2ccc(C)cc21 | inconclusive: 35.5 µM [activator, single point] | – |

| Structure (SMILES) | Potency | growth rescue (activation) |
| --- | --- | --- |
| COc1ccc(-c2cn(-c3ccc(C)cc3)c(S(=O)(=O)CC(=O)Nc3ccccc3)n2)cc1 | inconclusive: 22.4 µM [activator, single point] | – |
| O=C(c1ccccc1F)N1CCN(S(=O)(=O)c2ccc3ccccc3c2)CC1 | active: 35.5 µM | – |
| COc1cc2c(cc1OC)CN(c1nc(-c3cccnc3)nc3ccccc13)CC2 | active: 14.1 µM | – |
| O=C(CSC1=NS(=O)(=O)c2ccccc21)Nc1ccccc1 | active: 35.5 µM | – |
| CCN(CC(=O)NCc1cccs1)C(=O)c1ccc(S(=O)(=O)N(C)c2ccccc2)cc1 | – | inactive: -2.54% |
| Cc1cc(C)n(-c2ncnc3c2oc2ccccc23)n1 | inconclusive: 12.6 µM [activator, single point] | – |
| Cc1cc(Nc2cccc(F)c2)nc(-c2ccccc2O)n1 | inconclusive: 2 µM [activator, full curve] | – |
| COc1cccc(C(=O)Nc2ccc(C(=O)c3ccccc3)cc2)c1 | inconclusive: 12.6 µM [activator, partial curve] | – |
| Cc1c(C(=O)N2CCN(c3ccc(F)cc3)CC2)sc2nc3n(c(=O)c12)CCC3 | inconclusive: 31.6 µM [activator, single point] | – |
| CCCCS(=O)(=O)c1oc(-c2cccs2)nc1S(=O)(=O)c1ccc(F)cc1 | active: 22.4 µM | – |
| CN(C)/C=N/c1sc2c(c1C(N)=O)CCCC2 | inconclusive: 2.82 µM [activator, partial curve] | – |
| CCCCCOc1ccc(Cn2c(=O)oc3ccc(C)cc32)cc1OC | – | inactive: 1.63% |
| CCC(=O)N1CCc2cc(Br)cc(S(=O)(=O)N3CCC(C(=O)Nc4ccccc4F)CC3)c21 | inconclusive: 0.501 µM [activator, full curve, poor fit] | – |
| CC(=O)N1CCc2cc(S(=O)(=O)NC(CC(C)C)C(=O)NCc3ccccc3Cl)ccc21 (stereo not drawn) | inconclusive: 3.98 µM [activator, full curve, poor fit] | – |
| CC(C)Cn1cnc2c(SCc3ccccc3)nc(N)nc21 | inconclusive: 35.5 µM [activator, single point] | – |
| Cc1c(NC(=O)c2cc(-c3ccccc3O)on2)c(=O)n(-c2ccccc2)n1C | inconclusive: 2.82 µM [activator, single point] | – |
| COc1ccc(CNC(=O)CCc2c(C)c3cc4c(C)c(C)oc4cc3oc2=O)cc1 | – | inactive: -16% |
| Cc1c(C(=O)N2CCN(c3ncccn3)CC2)oc2ccc(Cl)cc12 | inconclusive: 11.2 µM [activator, partial curve, poor fit] | – |
| CCOC(=O)C1CCCN(C(=O)/C=C/c2ccc([N+](=O)[O-])cc2)C1 (stereo not drawn) | inconclusive: 15.8 µM [activator, partial curve] | – |
| Cc1cccc(-n2c(N)cc(=O)nc2SCC(=O)Nc2ccc(F)cc2)c1C | inconclusive: 3.98 µM [activator, partial curve] | – |
| O=C(c1ccc(Cl)cc1)C1CCN(C(=O)c2ccccc2)CC1 | inconclusive: 15.8 µM [activator, single point] | – |
| CCCc1[nH]c2ccc(C#N)cc2c1CCC | inconclusive: 35.5 µM [activator, partial curve] | – |
| O=C(O)Cn1cc(C(=O)c2ccco2)c2ccccc21 | – | inactive: 2.07% |

— PubChem BioAssay AID652104 (National Center for Advancing Translational Sciences (NCATS), 2013)
